In PubChem BioAssay AID463173 (ICCB-Longwood Screening Facility, Harvard Medical School, 2010):
The campaign covered roughly 52,000 compounds. About 4,300 (8.3%) were called active. Rule as the data show it: active = survival mostly below about 52% (no sharp cut-off); inactive = mostly above about 56%. This is one part of the list.

System: DeltatarO mutant
Assay: growth inhibition of S. aureus wild type versus tarO mutant, primary screen, teichoic acid synthesis inhibitors, RN4220, OD600 (AID 463173)
Settings: OD600, 18 h, active compounds read low, screened at 18.75 µg/mL (by protocol)

Compound | survival
CCOc1ccc(N(CC)S(=O)(=O)N2CCCC(C(=O)NCc3ccc(SC)cc3)C2)cc1 (stereo not given) | inactive: 70%
COc1cccc(CNC(=O)NCc2noc3ccc(C)cc23)c1 | inactive: 74%
Cn1nc(CC(=O)Nc2ccc3c(c2)CCC3)c2ccccc2c1=O | inactive: 106%
Cc1nc2cc(C(=O)O)ccc2n1-c1ccc(C(C)C)cc1 | inactive: 68%
CCOC(=O)c1sc(NC(=O)c2cc3nc(-c4ccc(Br)cc4)cc(C(F)(F)F)n3n2)c(C(=O)OCC)c1C | inactive: 112%
CCOC(=O)CCn1nc(C)c2c(C)n(-c3ccccc3)nc2c1=O | inactive: 87%
Cc1cccc(N2CCN(C(=O)Cn3c(=O)c4cccn4c4ccc(F)cc43)CC2)c1C | inactive: 74%
Cc1ccc(N2CC(NC(=O)CCc3ccccc3)CC2=O)cc1 (stereo not given) | active: 20%
COc1ccccc1C(=O)NC(=O)Nc1ccc(-n2nc(C(F)(F)F)cc2C(F)(F)F)cc1 | inactive: 59%
COc1ccc(C2(O)CC3CCC(C2)N3c2cc(C)nc(-c3ccccc3)n2)cc1 (stereo not given) | inactive: 85%
CC1=C(C(=O)NCc2ccc(Cl)cc2)C2(CCCCCC2)OC1=O | inactive: 92%
COc1ccc(-c2ccc3c(N)c(C(=O)Nc4cccc(C)c4)sc3n2)cc1 | inactive: 82%
COc1cccc(CSc2nc3n(n2)C(c2cccnc2)C(C(=O)Nc2ccccc2C)=C(C)N3)c1 (stereo not given) | inactive: 74%
COc1ccccc1C(=O)Nc1ccc(C(=O)OCc2cc(=O)n3ccsc3n2)cc1 | inactive: 96%
COc1ccccc1N(CC(O)Cn1ccnc1C)S(=O)(=O)c1ccc(C)cc1 (stereo not given) | inactive: 69%
CCc1cccc(NC(=O)CN2C=NS(=O)(=O)c3ccccc32)c1 | inactive: 75%
CCOC(=O)c1ccccc1NC(=O)N(Cc1ccco1)C1CCN(C(C)=O)CC1 | inactive: 126%
CCOc1nc(NC(=O)NS(=O)(=O)Oc2ccccc2Cl)nc(-c2ccccc2)n1 | inactive: 70%
Cc1ccc(C)n1-c1nnc(N2CCCC(C(=O)NCc3ccccc3)C2)s1 (stereo not given) | inactive: 96%
Cc1ccc(NC(=O)CCc2c(C)nc3nc(C)nn3c2C)c(Cl)c1 | inactive: 89%
Cc1ccc(NC(=O)c2ccc(Br)cc2)c(C(=O)c2ccccc2)c1 | active: -2%
CC(C)CC(=O)Nc1ccc(Cl)c(-c2nc3ccccc3[nH]2)c1 | active: 39%
COc1ccc(Br)cc1CSC(=N)N | inactive: 84%

Compound | survival
Cc1nc2nc(SCC(=O)NCc3ccccc3)nn2c(C)c1Cc1ccccc1 | active: 8%
COc1ccc(OC)c(CNC(=O)CN2C(=O)CCn3nc(-c4cn(C)c5ccccc45)cc32)c1 | inactive: 60%
N#Cc1ccc(NS(=O)(=O)c2ccc(-c3cnc(C4CC4)o3)cc2)cc1 | inactive: 69%
Cc1ccc(-c2nn3c(-c4ccc(C)cc4)nnc3c3ccccc23)cc1 | active: 20%
COc1ccccc1-n1c(SCC(=O)Nc2ccc(C)cc2)nc(O)cc1=O | inactive: 61%
O=C(CCCn1c2ccccc2c(=O)c2ccccc21)Nc1ccc(F)cc1Cl | inactive: 51%
COc1cc(CN(C(=O)c2oc3ccccc3c2C)C2CCS(=O)(=O)C2)cc(OC)c1OC (stereo not given) | inactive: 55%
Cc1ccc(N(Cc2cccs2)C(=O)COc2ccccc2[N+](=O)[O-])cc1 | inactive: 60%
CC(=O)Nc1ccc(S(=O)(=O)NCCc2csc3nc(-c4cccc(C)c4)nn23)cc1 | inactive: 80%
Cc1cccc(-c2nc(Cn3c(SCc4cc(C)ccc4C)nc4ccncc43)c(C)o2)c1 | inactive: 53%
O=C(NCc1ccccc1Cl)C1CCC(CNS(=O)(=O)c2ccc(Br)s2)CC1 (stereo not given) | inactive: 124%
CCc1ccc(NC(=O)CSc2nc3ccsc3c(=O)n2C(C)CC)cc1 (stereo not given) | inactive: 101%
COc1ccc(CCNC(=O)c2nn(C)c3c2CSc2ccccc2-3)cc1OC | inactive: 70%
O=C(NCc1ccccc1)C(=O)NCC(c1cccnc1)N1CCN(c2ccccc2)CC1 (stereo not given) | active: 45%
CN(C)c1ccc(NC(=O)CSC2=Nc3ccccc3C3=NC(CC(=O)NCc4ccccc4)C(=O)N23)cc1 (stereo not given) | inactive: 79%
CCOc1ccccc1CN(CCc1ccc2c(c1)OCO2)Cc1cccc(OC)c1OC | active: 34%
CCN1CCC(N(Cc2ccc3c(c2)OCO3)C(=O)Nc2ccccc2OC)CC1 | inactive: 89%
COc1cc(NC(=O)C(CCS(C)(=O)=O)N2Cc3ccccc3C2=O)cc(OC)c1OC (stereo not given) | inactive: 55%
COc1cccc(C2CC(=O)N3CN(C4CCCCC4)CSC3=C2C#N)c1 (stereo not given) | inactive: 88%
CC1CN(C(=O)N2CCC(C(=O)NC3CCCCCC3)CC2)c2ccccc2O1 (stereo not given) | inactive: 68%
CCCN1C(=O)c2[nH]nc(-c3ccc(F)cc3)c2C1c1ccccn1 (stereo not given) | inactive: 54%
COc1cccc(NC(=O)c2cc3c(=O)n(Cc4cccnc4)ccc3nc2C)c1 | inactive: 101%
COc1ccccc1CNC(=O)CCC1N=C2c3ccccc3N=C(SCC(=O)NCCc3ccc(OC)c(OC)c3)N2C1=O (stereo not given) | inactive: 92%

Compound | survival
COc1ccc(NC(=O)OCC(F)(F)F)cc1 | inactive: 72%
CCc1ccc(-c2cc(C)no2)cc1S(=O)(=O)Nc1ccc(Cl)cc1 | inactive: 68%
Cc1ccc(C2C(=O)N(C3CCCCCC3)CC(=O)N2C(C)C)cc1 (stereo not given) | inactive: 94%
Cc1ccccc1C(=O)Nc1sc2c(c1C(=O)O)CCC(C(C)(C)C)C2 (stereo not given) | active: -2%
O=C(CSc1nc2c([nH]c3ccccc32)c(=O)n1-c1ccc(F)cc1)NCC1CCCO1 (stereo not given) | inactive: 89%
Cc1cc(=O)oc2cc(OCC(=O)N(C)C)c(Cl)cc12 | inactive: 60%
O=C(CSc1nc2c([nH]c3ccccc32)c(=O)n1-c1ccccc1)N1CCCc2ccccc21 | inactive: 117%
Cc1cc(C)c2c(n1)SCC(=O)N2CC(=O)Nc1ccccc1C | inactive: 101%
CNC(=O)C1CCC(Cn2c(=O)c3sccc3n(CC(=O)NCc3ccc(C)cc3)c2=O)CC1 (stereo not given) | inactive: 80%
COc1ccc(NC(=O)Cn2c(=O)oc3cc(Cl)ccc32)c(OC)c1 | inactive: 91%
Cn1c(=O)oc2cc(S(=O)(=O)N3CCCC(C(=O)NCc4ccccc4Cl)C3)ccc21 (stereo not given) | inactive: 97%
Nc1ccc(N2CCOCC2)c2nonc12 | inactive: 80%
CCc1ccc(NC(=O)CSc2nc(C)c(C(=O)Nc3ccc(Cl)cc3)c(-c3ccc(OC)cc3)c2C#N)cc1 | inactive: 92%
Cc1ccc(C)c(NC(=O)CCCn2c(C)c3cnn(-c4ccccc4)c(=O)c3c2C)c1 | inactive: 72%
Cc1ccccc1C(=O)NC1CCN(CC(=O)NC2CCCCC2)CC1 | inactive: 97%
COc1ccc(OC)c(C2=NS(=O)(=O)N(C)C(C(=O)Nc3ccc(C(C)=O)cc3)=C2)c1 | inactive: 78%
Cc1ccc(C)c(NC(=O)C2CCN(c3ncnc4c3nc3n4CCCCC3)CC2)c1 | inactive: 72%
O=C(Cn1nnc(-c2cccnc2)n1)N(c1ccccc1)c1ccccc1 | inactive: 76%
COc1cc(CN(C(=O)COc2ccc(Cl)cc2)c2ccccn2)cc(OC)c1OC | inactive: 106%
CC(C)(C)c1ccc(C(=O)NNc2ncnc3c2cnn3-c2ccc(Cl)cc2)cc1 | inactive: 107%
Cc1cccc(C)c1NC(=O)NCCCN1CCN(c2ccccc2)CC1 | inactive: 134%
Cc1cccc(NC(=O)c2cc(CN3CCOCC3)on2)c1C | inactive: 86%
Cc1cccc(S(=O)(=O)c2cn(C)c3cc(N4CCCCCC4)c(F)cc3c2=O)c1 | inactive: 61%

Compound | survival
O=C(CSc1ccccc1)N1CCc2c([nH]c3ccccc23)C1c1ccc(Cl)cc1 (stereo not given) | active: 52%
COc1ccc(NC(=O)Cn2nc3c(cc2=O)CCCC3)cc1Cl | inactive: 101%
COc1cccc(C(=O)c2cn(CC(=O)Nc3cc(Cl)c(OC)cc3OC)c3nc(C)ccc3c2=O)c1 | inactive: 107%
CC1=C(c2ccc(F)cc2)S(=O)(=O)N=C1N1CCC(C(=O)NCCc2ccccc2)CC1 | inactive: 78%
Cc1nc(N2CCCC2)ncc1C(=O)NCc1ccc(Cl)cc1 | inactive: 85%
Cc1ccc(NC(=O)NCCOCCn2c(=O)oc3ccccc32)c(C)c1 | inactive: 70%
CC(C)c1ccc(Cc2cn3cc(-c4cc5ccccc5oc4=O)nc3s2)cc1 | inactive: 56%
COc1cccc(-n2c(SCC(=O)Nc3cccc(C)c3)nc3c([nH]c4ccccc43)c2=O)c1 | inactive: 85%
O=C(NCc1ccc(Cl)cc1)c1cc2ccc3cccnc3c2[nH]1 | inactive: 58%
CCOC(=O)C1CCCN(C(=O)Cn2c(=O)cc(C)c3c(C)nn(C)c32)C1 (stereo not given) | inactive: 73%
COc1ccc(S(=O)(=O)N2CCC(C(=O)NC(C)c3ccccc3)CC2)cc1 (stereo not given) | inactive: 79%
O=c1sc2ccccc2c2nc[nH]c12 | inactive: 91%
Cc1ccc(CN2C(=O)C(O)(CC(=O)c3ccc(C)cc3)c3ccccc32)cc1 (stereo not given) | inactive: 65%
CCc1ccccc1NC(=O)CC(C)S(=O)(=O)c1ccc2c(c1)NC(=O)CO2 (stereo not given) | inactive: 80%
CCNC(=O)C1CCN(c2nc3ccccc3nc2C(F)(F)F)CC1 | inactive: 144%
O=C(CSc1nc2c([nH]c3ccccc32)c(=O)n1-c1ccccc1)NCc1ccc(F)cc1 | inactive: 66%
CCc1ccc2occ(CC(=O)Nc3nnc(C)s3)c2c1 | inactive: 85%
O=C(CN1C(=O)C2(SCC(=O)N2c2ccccc2)c2ccccc21)Nc1ccccc1C(F)(F)F (stereo not given) | inactive: 125%
COc1ccccc1-c1cc(-c2ccc(O)cc2)nc(N)c1C#N | active: 12%
CC(=O)c1nn(-c2ccc(OC(F)(F)F)cc2)nc1Nc1ccc(Cl)cc1 | inactive: 84%
CCOc1ccc(NC(=O)Cn2cc(S(=O)(=O)c3ccc(C)cc3)c(=O)c3cc(F)ccc32)cc1 | inactive: 74%
